{
  "source": "PubChem BioAssay AID463173",
  "about": "(ICCB-Longwood Screening Facility, Harvard Medical School, 2010)",
  "note": "The whole screen tested about 52,000 compounds, of which about 4,300 (8.3%) were called active. Rule as the data show it: active = survival mostly below about 52% (no sharp cut-off); inactive = mostly above about 56%. This is one part of the list.",
  "data": [
    {"test_system": "DeltatarO mutant", "experiment": "S. aureus survival, RN4220 and DeltatarO strains – OD600, teichoic acid synthesis inhibitors, primary screen (AID 463173)", "conditions": "S. aureus RN4220 wild type/DeltatarO growth, OD600, 18 h, hits give low values, screened at 18.75 µg/mL (by protocol)", "values": [
      {"smiles": "CCC(Cc1ccccc1)NC(=O)c1csc2c1CCCCC2", "note": "(stereo unspecified)", "survival": "inactive: 125%"},
      {"smiles": "COc1cccc(Cn2c(SCc3ccc(C(=O)N4CCC(C)CC4)cc3)nc3ccncc32)c1", "survival": "inactive: 120%"},
      {"smiles": "CCOc1ccc(N=C(c2ccccc2)N2CCOCC2)cc1", "survival": "inactive: 69%"},
      {"smiles": "COc1ccc2c(C)cc(SCC(=O)Nc3nsc(-c4ccc(C(C)(C)C)cc4)n3)nc2c1", "survival": "inactive: 56%"},
      {"smiles": "COc1cc(NC(=O)CCCSc2nc(-c3ccco3)cc(C(F)(F)F)n2)cc(OC)c1OC", "survival": "active: 38%"},
      {"smiles": "Cc1cc(-c2nc3ncccc3o2)ccc1NC(=O)COc1ccc(C(C)(C)C)cc1", "survival": "active: 32%"},
      {"smiles": "CCc1ccc(NC(=O)CSc2nnc(-c3nonc3NC(C)=O)n2-c2ccccc2)cc1", "survival": "active: 43%"},
      {"smiles": "Cc1c2cnn(-c3ccccc3)c(=O)c2c(C)n1CC(=O)NCc1ccc(Cl)cc1", "survival": "inactive: 87%"},
      {"smiles": "CCOc1ccc(Nc2c(S(=O)(=O)c3ccc(C)cc3)cnc3ccccc23)cc1", "survival": "active: 43%"},
      {"smiles": "CCN1CCCC1CNCC(=O)Nc1ccc(C)c(Br)c1", "note": "(stereo unspecified)", "survival": "inactive: 93%"},
      {"smiles": "Cc1ccc(-n2ncc3c(NCCc4ccccc4)ncnc32)cc1", "survival": "inactive: 87%"},
      {"smiles": "Cc1cc2oc(C(=O)N(Cc3ccccc3)C3CCS(=O)(=O)C3)cc(=O)c2cc1C", "note": "(stereo unspecified)", "survival": "inactive: 49%"},
      {"smiles": "Cc1ccccc1C(=O)Nc1ccccc1C(=O)OCc1cc(=O)n2nc(C3CC3)sc2n1", "survival": "inactive: 120%"},
      {"smiles": "O=C(NC1CCSC1=O)c1ccc(Br)cc1", "note": "(stereo unspecified)", "survival": "inactive: 92%"},
      {"smiles": "CCc1ccc(-n2c(=O)c3cccnc3n2CC(=O)N(CC)c2cccc(C)c2)cc1", "survival": "inactive: 94%"},
      {"smiles": "COc1cccc(C(=O)Nc2ccc3c(c2)CCCN3C(=O)c2cccs2)c1OC", "survival": "inactive: 81%"},
      {"smiles": "Cc1ccc(NC(=O)CN2C(=O)C(c3ccccc3)=NC2(C)C)cc1C", "survival": "inactive: 82%"},
      {"smiles": "Fc1ccc(-n2ncc3c(Nc4ccc(Oc5ccc(Cl)cc5)cc4)ncnc32)cc1", "survival": "inactive: 77%"},
      {"smiles": "CC1=C(C(N)=O)C(c2ccc(C(C)C)cc2)n2nc(SCc3ccccc3F)nc2N1", "note": "(stereo unspecified)", "survival": "inactive: 80%"},
      {"smiles": "CCn1cc2nc(SCc3cccc(C(F)(F)F)c3)n(CCc3ccccc3)c(=O)c2n1", "survival": "inactive: 79%"},
      {"smiles": "COCCn1c(-c2ccccc2)cnc1N", "survival": "inactive: 82%"},
      {"smiles": "CCOc1ccc(NC(=O)Cn2cnc3nc4c(cc3c2=O)CCCC4)cc1", "survival": "inactive: 88%"},
      {"smiles": "COc1ccc(CCNC(=O)Cn2c(C)c3cnn(-c4ccccc4)c(=O)c3c2C)cc1OC", "survival": "inactive: 81%"},
      {"smiles": "Cc1c(CCNC(=O)c2ccc(C(F)(F)F)cc2)sc2nc(-c3ccc(F)cc3)nn12", "survival": "inactive: 81%"},
      {"smiles": "COc1ccc(-c2cc(C)no2)cc1S(=O)(=O)Nc1cccc(C(F)(F)F)c1", "survival": "inactive: 83%"},
      {"smiles": "COC(=O)c1c(NC(=O)c2ccc(S(=O)(=O)N3CCCCC3)cc2)sc2c1CCN(C)C2", "survival": "inactive: 70%"},
      {"smiles": "COc1ccc(CCNC(=O)CCCn2c(=O)c3ccccc3n(CC(=O)Nc3c(C)cc(C)cc3C)c2=O)cc1OC", "survival": "inactive: 82%"},
      {"smiles": "COC(=O)c1ccc(OC)c(Cn2c(=O)n(-c3cccc(Cl)c3)c(=O)c3c2c2cc(C)ccc2n3C)c1", "survival": "inactive: 78%"},
      {"smiles": "CCOC(=O)c1c(-c2ccc(C)cc2)csc1NC(=O)c1ccc(C(C)(C)C)cc1", "survival": "inactive: 53%"},
      {"smiles": "CCc1ccc(NC(=O)CCS(=O)(=O)c2ccc3c(c2)oc(=O)n3C)cc1", "survival": "inactive: 90%"},
      {"smiles": "N#CCC(=O)N1CCCCCC1", "survival": "inactive: 84%"},
      {"smiles": "Cc1ccc(-n2c(SCc3nc(-c4ccccc4C)no3)nnc2-c2ccncc2)cc1C", "survival": "inactive: 100%"},
      {"smiles": "Cc1cccc(-c2nc3sc(C)cc3c(=O)o2)c1", "survival": "inactive: 94%"},
      {"smiles": "Cc1ccc(N2CC(c3nnc(Cc4ccc(F)cc4Cl)o3)CC2=O)cc1", "note": "(stereo unspecified)", "survival": "inactive: 57%"},
      {"smiles": "CCCCNC(=O)c1ccc(-c2nc(CS(=O)(=O)c3ccc(C)cc3)c(C)o2)cc1", "survival": "inactive: 75%"},
      {"smiles": "CC1=C(c2ccc(Cl)cc2)S(=O)(=O)N=C1N1CCN(c2cccc(C)c2)C(C)C1", "note": "(stereo unspecified)", "survival": "inactive: 89%"},
      {"smiles": "COC(=O)CNC(c1ccccc1)c1cc(Br)ccc1NC(=O)c1cc(OC)c(OC)c(OC)c1", "note": "(stereo unspecified)", "survival": "inactive: 66%"},
      {"smiles": "Cc1ccc(-c2csc(=Nc3ccccc3)n2CCCO)cc1", "survival": "active: 5%"},
      {"smiles": "CCOC(=O)c1ccc(NC(=O)Cn2nnc(-c3ccc(C(F)(F)F)cc3)n2)cc1", "survival": "inactive: 87%"},
      {"smiles": "CNC(=O)c1ccc(NC(=O)c2nsc3ccccc23)cc1", "survival": "inactive: 48%"},
      {"smiles": "CCOC(=O)c1ccc(OCC2c3cc(OC)c(OC)cc3CCN2C(=O)Cc2ccc(OC)c(OC)c2)cc1", "note": "(stereo unspecified)", "survival": "inactive: 79%"},
      {"smiles": "COc1ccc2c(c1)c(N1CCCC1=O)c(C(=O)Nc1ccc(Cl)cc1C)n2C", "survival": "inactive: 124%"},
      {"smiles": "CCN1Cc2cccc(C(=O)Nc3ccc(F)cc3)c2C1=O", "survival": "inactive: 129%"},
      {"smiles": "Cc1ccc(-n2nnc(-c3nsc(NC(=O)c4ccc(C)c(C)c4)n3)c2C)cc1", "survival": "inactive: 128%"},
      {"smiles": "CCc1ccc(CNC(=O)CCn2c(=O)c3cccn3c3ccc(F)cc32)cc1", "survival": "inactive: 91%"},
      {"smiles": "COc1cccc(=O)c2c(C)oc(C)c12", "survival": "inactive: 95%"},
      {"smiles": "CCN(CC)c1ccc(/C=N/NC(=O)CC(C)C)cc1", "survival": "inactive: 74%"},
      {"smiles": "N#Cc1ccccc1CNCc1cccs1", "survival": "inactive: 78%"},
      {"smiles": "O=C(Nc1ccc(F)c(F)c1)C1CCCN1S(=O)(=O)c1cccc2nsnc12", "note": "(stereo unspecified)", "survival": "inactive: 89%"},
      {"smiles": "CCOc1ccccc1NC(=O)COc1ccc(S(=O)(=O)NC2CCCCC2)cc1", "survival": "active: 48%"},
      {"smiles": "CCc1ccc(-n2c(CCC(=O)O)ccc2-c2ccc(F)cc2)cc1", "survival": "active: 29%"},
      {"smiles": "COc1ccc(S(=O)(=O)N(CC(=O)Nc2cccnc2)c2ccc(C)cc2)cc1OC", "survival": "inactive: 74%"},
      {"smiles": "COc1cc2c(=O)n(CCC(=O)NCC3CCCO3)c(=O)n(CC(=O)Nc3ccc(F)cc3)c2cc1OC", "note": "(stereo unspecified)", "survival": "inactive: 136%"},
      {"smiles": "Cc1ccc(O)c(NC(=O)CCS(=O)(=O)c2nc(-c3ccc4c(c3)OCO4)cc(C(F)(F)F)n2)c1", "survival": "inactive: 64%"},
      {"smiles": "CCN(CC)NC(=S)Nc1ccccc1", "survival": "inactive: 105%"},
      {"smiles": "COc1cccc(C(=O)N2CCN(Cc3cccc(C)c3)CC2)c1OC", "survival": "inactive: 68%"},
      {"smiles": "CS(=O)(=O)N1CCc2cc(C(=O)Nc3cccc(F)c3)ccc21", "survival": "inactive: 68%"},
      {"smiles": "COc1ccccc1CC(=O)Nc1ccc2nc(N3CCC(C)CC3)cc(C)c2c1", "survival": "inactive: 61%"},
      {"smiles": "Cc1ccc(C)c(Cn2c3ccccc3c3cnn(CC(=O)NC(C)c4ccccc4)c(=O)c32)c1", "note": "(stereo unspecified)", "survival": "inactive: 76%"},
      {"smiles": "COc1cccc2sc(N3CCN(C(=O)CCS(=O)(=O)c4ccc(F)cc4)CC3)nc12", "survival": "inactive: 66%"},
      {"smiles": "CCCS(=O)(=O)N1CCC(n2c(C(F)(F)F)nc3cccnc32)CC1", "survival": "inactive: 93%"},
      {"smiles": "Cc1ccc(CNC(=O)C(=O)NCC(c2cccnc2)N2CCN(c3ccccc3F)CC2)cc1", "note": "(stereo unspecified)", "survival": "inactive: 66%"},
      {"smiles": "Cc1ccsc1CN(C(=O)c1oc2ccccc2c1C)C1CCS(=O)(=O)C1", "note": "(stereo unspecified)", "survival": "inactive: 80%"},
      {"smiles": "COc1cccc(C=Nc2cnn(C)c2C(N)=O)c1O", "survival": "inactive: 106%"},
      {"smiles": "CCn1c(=O)c2sccc2n2c(CCC(=O)Nc3ccc(OC)c(Cl)c3)nnc12", "survival": "inactive: 89%"},
      {"smiles": "Cc1ccc(C(=O)Nc2nc(-c3ccccc3)ns2)cc1", "survival": "inactive: 59%"},
      {"smiles": "Cc1oc2ncn(C)c(=O)c2c1C(=O)NCCCN(Cc1ccccc1)C(C)C", "survival": "inactive: 72%"},
      {"smiles": "Cc1ccc(NC(=O)Cn2nnc(C(=O)NCCc3ccccc3)c2N)cc1C", "survival": "active: 46%"},
      {"smiles": "CC(C)Oc1ccc(CNC(=O)C2CCN(c3nc4ccccc4n(C)c3=O)CC2)cc1", "survival": "inactive: 84%"},
      {"smiles": "CCc1ccc(C2NC(=O)c3[nH]nc(-c4cccc(OC)c4)c32)cc1", "note": "(stereo unspecified)", "survival": "inactive: 54%"},
      {"smiles": "Cc1ccc(S(=O)(=O)C(=O)Nc2cccc3nsnc23)cc1", "survival": "inactive: 94%"},
      {"smiles": "O=C(c1ccccc1)N1CCN(C(=O)c2cc3ccccc3oc2=O)CC1", "survival": "inactive: 87%"},
      {"smiles": "CCOc1ccc(C(=O)c2cn(Cc3ccc(F)cc3)c3ccc(F)cc3c2=O)cc1", "survival": "inactive: 57%"},
      {"smiles": "Cc1ccc(C)c(CNC(=O)c2cnc3sc(N4CCCC4)nn3c2=O)c1", "survival": "inactive: 78%"},
      {"smiles": "Cc1cccc(-n2ncc3c(N4CCCCCC4)ncnc32)c1", "survival": "inactive: 92%"},
      {"smiles": "Cc1ccc(CN(Cc2ccco2)C(=O)c2oc3ccc(C)cc3c2C)cc1", "survival": "inactive: 54%"},
      {"smiles": "CSc1ccc(C2c3c(oc4ccccc4c3=O)C(=O)N2CCCN2CCOCC2)cc1", "note": "(stereo unspecified)", "survival": "inactive: 73%"},
      {"smiles": "CC(C)(C)C(=O)OC1=CN(Cc2ccccc2)S(=O)(=O)c2ccccc21", "survival": "inactive: 69%"},
      {"smiles": "CCCNC(=O)CN1CCN(c2ncc(NC(=O)c3ccc(Cl)cc3)cc2C(=O)O)CC1", "survival": "inactive: 103%"},
      {"smiles": "CCCOc1ccccc1C1Oc2nc(SC)nnc2-c2ccccc2N1C(C)=O", "note": "(stereo unspecified)", "survival": "inactive: 82%"},
      {"smiles": "COCCNC(=O)Cn1ncc2c(C)n(Cc3ccc(C)cc3)c(C)c2c1=O", "survival": "inactive: 75%"},
      {"smiles": "COc1cccc(NC(=O)c2c(C(=O)Nc3ccccc3)sc3nc(C)cc(=O)n23)c1", "survival": "inactive: 62%"},
      {"smiles": "CCOc1ccc(/C=C/C(=O)Nc2sc3c(c2C(=O)OC)CCC3)cc1", "survival": "inactive: 75%"},
      {"smiles": "CN(C)c1nc(N(C)C)nc(N(C#N)CN2C(=O)c3ccccc3C2=O)n1", "survival": "inactive: 91%"},
      {"smiles": "CCc1ccc(NC(=O)CSc2nc3ncccc3[nH]2)cc1", "survival": "inactive: 86%"},
      {"smiles": "O=S(=O)(c1ccccc1)c1nc(-c2ccc(F)cc2)oc1N1CCCCCC1", "survival": "active: 33%"},
      {"smiles": "c1ccc(Nc2nc(N3CCCCC3)nc(N3CCCCC3)n2)cc1", "survival": "inactive: 106%"},
      {"smiles": "COc1ccccc1NC(=O)C1=C(C)Nc2nc(SCc3ccccc3Cl)nn2C1c1ccncc1", "note": "(stereo unspecified)", "survival": "inactive: 59%"},
      {"smiles": "CC(=O)c1c(C)oc2ccc(N(C(=O)c3ccncc3)S(=O)(=O)c3ccc(C)cc3C)cc12", "survival": "inactive: 68%"},
      {"smiles": "CCN(CC)S(=O)(=O)c1ccc(C(=O)NCCSc2c(-c3ccc(OC)cc3)[nH]c3ccccc23)cc1", "survival": "inactive: 104%"},
      {"smiles": "CC(=O)Nc1cccc(NC(=O)CSc2cn(CC(=O)N3CCCCCC3)c3ccccc23)c1", "survival": "inactive: 88%"}
    ]}
  ]
}
